# In PubChem BioAssay AID488969 (Vanderbilt High Throughput Screening Facility, 2010):
# Whole data set: some 110,000 compounds, median “z-score” near -0.1, cut for the highest 2% near 2. The list shows a part of the results.
# Target: Metabotropic glutamate receptor 8 (Rattus norvegicus) (UniProt P70579)
# Assay: rat mGluR8 modulators via GIRK flux, primary screen, cell-based, thallium flux, HTS (AID 488969)
# Details: HEK293 rat mGluR8, GIRK (G protein-gated inwardly rectifying potassium channel) thallium flux, FluoZin2; at 10 µM; stronger effect = higher value; submaximal glutamate (EC20) added with thallium
# Sequence of UniProt P70579 (P70579 whole entry, looked up): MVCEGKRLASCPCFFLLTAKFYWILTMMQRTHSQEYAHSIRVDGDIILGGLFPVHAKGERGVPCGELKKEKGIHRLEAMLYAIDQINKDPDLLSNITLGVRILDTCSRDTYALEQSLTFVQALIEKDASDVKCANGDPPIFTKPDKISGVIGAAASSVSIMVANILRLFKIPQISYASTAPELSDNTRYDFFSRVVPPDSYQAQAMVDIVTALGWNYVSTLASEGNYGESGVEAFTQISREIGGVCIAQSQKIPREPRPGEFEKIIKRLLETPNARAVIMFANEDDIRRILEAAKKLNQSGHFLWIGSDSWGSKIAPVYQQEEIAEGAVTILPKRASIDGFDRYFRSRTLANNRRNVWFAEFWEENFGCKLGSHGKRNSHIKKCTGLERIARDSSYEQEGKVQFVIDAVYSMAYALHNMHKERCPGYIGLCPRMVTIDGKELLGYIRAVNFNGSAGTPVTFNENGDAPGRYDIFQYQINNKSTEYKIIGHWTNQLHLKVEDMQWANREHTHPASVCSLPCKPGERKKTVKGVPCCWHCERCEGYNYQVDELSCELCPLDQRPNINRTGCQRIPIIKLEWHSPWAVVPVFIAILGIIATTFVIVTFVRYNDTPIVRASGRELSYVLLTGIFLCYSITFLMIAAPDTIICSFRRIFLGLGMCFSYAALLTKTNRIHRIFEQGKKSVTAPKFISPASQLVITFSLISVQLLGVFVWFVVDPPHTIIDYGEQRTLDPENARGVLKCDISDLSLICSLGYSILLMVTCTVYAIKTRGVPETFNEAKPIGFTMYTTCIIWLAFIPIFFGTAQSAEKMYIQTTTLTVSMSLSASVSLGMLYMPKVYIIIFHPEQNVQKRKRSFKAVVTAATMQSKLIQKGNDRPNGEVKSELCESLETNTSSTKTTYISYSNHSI
row,SMILES,z-score
1,CC(=O)NCc1nc2ccccc2n1Cc1ccccc1C,-0.353
2,O=C(CN1CCN(c2ccccc2F)CC1)N1N=CCC1c1ccccc1 (stereo unspecified),0.0133
3,CCN(CC)CCCNc1oc(-c2cccc(Cl)c2)nc1C#N,1.31
4,NC(=O)CCn1c(=O)oc2ccccc21,0.517
5,Cc1ccc(CCNC(=O)C23CN(Cc4ccccc4)CC2C(c2ccc([N+](=O)[O-])cc2)=NO3)cc1 (stereo unspecified),-0.0964
6,Cc1ccccc1NC(=S)NCc1ccc2c(c1)OCO2,-0.132
7,CNC(=O)n1ccc(C(=O)N2CCCCC2)n1,0.461
8,Cc1ccc(Cn2nnc3c(=O)[nH]c(C4CCN(C(=O)Cc5cccs5)CC4)nc32)cc1,0.636
9,Cc1cc(NC(=O)CN2CCC(n3nnc4cc(C(F)(F)F)ccc43)CC2)no1,-0.277
10,CCOC(=O)Cc1csc(NC(=O)NC2(C(F)(F)F)Oc3ccccc3O2)n1,-0.266
11,Cc1ccc2cc(/C=N/NC(=O)[C@H](C)NC(=O)OC(C)(C)C)c(Cl)nc2c1,0.0812
12,O=C(CSc1nc2c(c(C(F)(F)F)n1)CCc1ccccc1-2)NCc1ccc(F)cc1,0.759
13,COc1cc(/C=C(\C#N)c2nc3ccccc3[nH]2)cc(Br)c1OCc1ccccc1,0.0675
14,Cc1ccc(S(=O)(=O)N(C)C)cc1NC(=O)CSc1nc2ccccc2[nH]1,-0.0977
15,COc1cc(OC)c(C2C(C(=O)Nc3ccccc3)=C(C)Nc3ncnn32)cc1OC (stereo unspecified),1.45
16,Cn1c(=O)c2cc(S(=O)(=O)N3CCOCC3)ccc2n(C)c1=O,0.139
17,CCN(CC)S(=O)(=O)c1cccc(C(=O)OCc2cc(=O)n3nc(C)sc3n2)c1,1.93
18,COc1ccc2c(c1OC)C(=O)OC2CC(=O)O (stereo unspecified),0.0305
19,Cc1cc(Br)c(S(=O)(=O)n2nnc3ccccc32)cc1C,0.289
20,c1csc(-c2csc3ncnc(NCCCN4CCOCC4)c23)c1,0.0839
21,N#CCSc1nc2ccccc2c2nc3ccccc3n12,1.3
22,CC1CCN(C(C(=O)Nc2ccc3c(c2)OCO3)c2ccccc2)CC1 (stereo unspecified),0.852
23,Cc1sc2nc(CSc3cccc(C(F)(F)F)c3)[nH]c(=O)c2c1C,-0.243
24,COc1ccc(-c2oc3ncn4nc(Cc5ccccc5)nc4c3c2-c2ccc(OC)cc2)cc1,-0.304

row,SMILES,z-score
1,COc1ccc(C(=O)CN2C(=O)NC(C)(c3ccc(C)cc3)C2=O)cc1OC (stereo unspecified),0.117
2,O=C(NCCCN1CCOCC1)NC1CCCCC1,0.0832
3,Cc1ccc(C(=O)NCCSC(C)(C)C)cc1,-0.631
4,CCC1(C)Cc2c(sc3c2c(=O)n(C)c2nnc(SCC(=O)c4ccccc4)n32)CO1 (stereo unspecified),-0.469
5,Cc1cc(-c2n[nH]c(=S)n2/N=C/c2cccs2)n[nH]1,-0.233
6,O=C(Nc1c(C(=O)Nc2cccc3ccccc23)cnn1-c1ccccc1)c1ccco1,-0.454
7,COc1ccc(Oc2cc(C)c3ccccc3n2)cc1,-0.218
8,CS(=O)(=O)N(CC(=O)Nc1ccc2c(c1)OCO2)c1ccc(Cl)cc1,-0.572
9,O=C(c1ccco1)N1CCC(c2nc(-c3ccccc3Cl)no2)CC1,-0.00356
10,Cn1c(=O)c2c(nc(Sc3ncccn3)n2Cc2ccccc2Cl)n(C)c1=O,-0.0395
11,CC(C)C(C)(C#N)NC(=O)CSc1nnc(-c2ccccc2)o1 (stereo unspecified),-0.849
12,Cc1noc(C)c1S(=O)(=O)N1CCCC(C(=O)NCCc2ccc(Cl)cc2)C1 (stereo unspecified),-0.0482
13,COc1ccc(CCNC(=O)COc2ccc(S(=O)(=O)N3CCOCC3)cc2)cc1,0.871
14,CC(=O)Nc1ccc(NC(=O)CN(c2ccc(C34CC5CC(CC(C5)C3)C4)cc2)S(C)(=O)=O)cc1,0.0357
15,O=C(NCc1ccco1)c1ccc(Br)c(S(=O)(=O)N2CCCCC2)c1,-0.271
16,C=CCc1cccc(/C=N/n2cnnc2)c1O,0.0603
17,O=C(Oc1ccc(Cl)cc1)c1ccc(N2CCOCC2)c([N+](=O)[O-])c1,0.173
18,O=C(Cn1c(=O)oc2ccccc21)N1CCCCC1,-0.313
19,CCCCC(c1nnnn1CCOC)N1CCN(CC)CC1 (stereo unspecified),0.726
20,Clc1ccc2nc(CN3CCCc4ccccc43)cn2c1,-0.482
21,CCOC(=O)N1CCN(C(=O)c2ccc(Cl)c(S(=O)(=O)N3CCOCC3)c2)CC1,-0.0962
22,CCOC(=O)C1=C(C)NC(=O)NC1c1ccccc1Cl (stereo unspecified),-1.03
23,CCOC(=O)c1cc2c(nc1N)CC(C)(CC)OC2 (stereo unspecified),-0.0521
24,O=C(Nc1cccc([N+](=O)[O-])c1)c1ccc(CN2CCOCC2)cc1,-0.154

row,SMILES,z-score
1,CC(C)N1CC=C2C(C#N)=C(N)C(C#N)(C#N)[C@H](c3ccoc3)[C@H]2C1,-1.02
2,C/C(=N\NC(N)=S)C12CC3CC(CC(C3)C1)C2,2.47
3,CN(Cc1cn(-c2ccccc2)nc1-c1ccc(Cl)cc1)C(=O)CCC(=O)O,-0.417
4,O=S(=O)(Nc1cc(Cl)ccn1)c1ccc(Cl)cc1,0.404
5,C=CCc1c(C)[nH]c(=S)c(C#N)c1C,0.33
6,c1ccc(-c2nnc3sc(Cc4cccs4)nn23)cc1,-2.92
7,O=c1[nH]c(SCc2nc3ccccc3c(=O)n2-c2ccccc2)nc2ccccc12,-0.425
8,Cc1c(C(=O)Nc2ccccc2)sc2nc(-c3ccccc3)cn12,-0.299
9,COCc1cc(=O)n2[nH]c(-c3ccccc3)cc2n1,0.574
10,Cc1cc(C)cc(NC(=O)CSc2nnc(-c3ccccc3C)o2)c1,0.162
11,Clc1cc(Cl)c2nc(N3CCCCC3)sc2c1,-0.0373
12,CCc1ccc(Nc2ccc(C(N)=O)cc2[N+](=O)[O-])cc1,0.0567
13,CC1Cn2c(nnc2-c2cccc(Cl)c2)S1 (stereo unspecified),0.938
14,CCc1cccc(CC)c1NC(=O)CCCSc1nc2ccccc2s1,-0.0184
15,COc1ccc(-n2c(SCC(=O)Nc3nccs3)nc3c(c2=O)SCC3)cc1,-0.227
16,COc1ccc(-c2nnc(-c3cccnc3)o2)cc1,0.161
17,CC(C(=O)N1CCN(C2c3ccccc3-c3ccccc32)CC1)N1C(=O)c2ccccc2C1=O (stereo unspecified),-0.686
18,Cc1cc(=O)n2c(C)n[nH]c2n1,-0.0861
19,CC(C)[C@H](NC(=O)OC(C)(C)C)c1nnc(SCc2cccc(F)c2)o1,0.0783
20,Cc1cc(N2CCN(C(=O)c3ccco3)CC2)n2ncnc2n1,-0.0355
21,CC(=O)C1=C(C)Nc2ncnn2C1c1cccc(OCc2ccccc2)c1 (stereo unspecified),-0.505
22,O=C(N/N=C/c1ccc(Cl)cc1Cl)Nc1ccccc1,-0.276
23,Cc1cc(C)c2nc(SCC(=O)N3CC(=O)Nc4ccccc43)c(C#N)cc2c1,-0.188
